# In publication PMC10965988, “PDGFRA K385 mutants in myxoid glioneuronal tumors promote receptor dimerization and oncogenic signaling” (Scientific Reports, 2024):
# B1: platelet-derived growth factor receptor alpha (PDGFRα) K385L, HA- and MYC-tagged (receptor, UniProt P16234 24-1089, looked up)
# chain: QLSLPSILPNENEKVVQLNSSFSLRCFGESEVSWQYPMSEEESSDVEIRNEENNSGLFVTVLEVSSASAAHTGLYTCYYNHTQTEENELEGRHIYIYVPDPDVAFVPLGMTDYLVIVEDDDSAIIPCRTTDPETPVTLHNSEGVVPASYDSRQGFNGTFTVGPYICEATVKGKKFQTIPFNVYALKATSELDLEMEALKTVYKSGETIVVTCAVFNNEVVDLQWTYPGEVKGKGITMLEEIKVPSIKLVYTLTVPEATVKDSGDYECAARQATREVKEMKKVTISVHEKGFIEIKPTFSQLEAVNLHEVKHFVVEVRAYPPPRISWLKNNLTLIENLTEITTDVEKIQEIRYRSKLKLIRALEEDSGHYTIVAQNEDAVKSYTFELLTQVPSSILDLVDDHHGSTGGQTVRCTAEGTPLPDIEWMICKDIKKCNNETSWTILANNVSNIITEIHSRDRSTVEGRVTFAKVEETIAVRCLAKNLLGAENRELKLVAPTLRSELTVAAAVLVLLVIVIISLIVLVVIWKQKPRYEIRWRVIESISPDGHEYIYVDPMQLPYDSRWEFPRDGLVLGRVLGSGAFGKVVEGTAYGLSRSQPVMKVAVKMLKPTARSSEKQALMSELKIMTHLGPHLNIVNLLGACTKSGPIYIITEYCFYGDLVNYLHKNRDSFLSHHPEKPKKELDIFGLNPADESTRSYVILSFENNGDYMDMKQADTTQYVPMLERKEVSKYSDIQRSLYDRPASYKKKSMLDSEVKNLLSDDNSEGLTLLDLLSFTYQVARGMEFLASKNCVHRDLAARNVLLAQGKIVKICDFGLARDIMHDSNYVSKGSTFLPVKWMAPESIFDNLYTTLSDVWSYGILLWEIFSLGGTPYPGMMVDSTFYNKIKSGYRMAKPDHATSEVYEIMVKCWNSEPEKRPSFYHLSEIVENLLPGQYKKSYEKIHLDFLKSDHPAVARMRVDSDNAYIGVTYKNEEDKLKDWEGGLDEQRLSADSGYIIPLPDIDPVPEEEDLGKRNRHSSQTSEESAIETGSSSSTFIKREDETIEDIDMMDDIGIDSSDLVEDSFL
# notes: platelet-derived growth factor receptor alpha (PDGFRA) with the tumour-derived substitution K385L, made by site-directed mutagenesis; The two tags stand on two separate copies of the receptor (one HA-tagged, one MYC-tagged), co-expressed; The mutation occurs in myxoid glioneuronal tumors; The HA-tagged construct is not described in the methods; source: HEK293T, co-transfected, in lysate (RIPA …)
# Biological target: the molecule itself
# Test: co-IP; HEK293T co-transfected with HA- and MYC-tagged PDGFRα; lysis in RIPA buffer; immunoprecipitation with anti-HA overnight at 4 °C, Protein A/G resin; western blot with anti-MYC; in the absence of ligand
protein,measurement,value
B1,fold dimerization against the WT receptor (Myc/HA band ratio),~3 fold
